Reference: PubChem BioAssay AID1347073 (National Center for Advancing Translational Sciences (NCATS), 2019)
The whole screen tested about 45,000 compounds, of which about 200 (0.44%) were called active. Another 7% or so got no clear call; they are omitted. Calls follow the shape of the dose curve; as a rule, active = well fitted activation curve with a large enough effect; inconclusive = small, poorly fitted or top-dose-only effect; inactive = no such curve, though single readings can be large or run the other way. This is one part of the list.

Experiment: qHTS of TDP-43 Inhibitors: NCGC Sytravon Library Screen; also: 0% is about no effect; nearly all actives have a fitted effect of over 55% in size
Conditions: yeast TDP-43 toxicity rescue, BacTiter-Glo growth, 24 h; series mostly up to 46.1 µM; growth rescue (activation): at the top concentration
In short: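 TDP-43-expressing yeast, pregrown in raffinose, seeded at OD600 0.02 in galactose medium with compound for 24 hr at 30 deg C. Growth read by BacTiter-Glo luminescence, so rescue of toxicity appears as activation.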

| SMILES | growth rescue (activation) |
| --- | --- |
| CCOc1ccc2oc(C(=O)NC3CC(C)(C)NC(C)(C)C3)c(C)c2c1 | inactive: 0.957% |
| Cc1ccccc1OCC(=O)Nc1ccc(-c2nc3ncccc3o2)cc1 | inactive: 3.49% |
| COc1ccccc1C(=O)Nc1ccnn1C1CCN(C/C=C/c2ccccc2)CC1 | inactive: 8.26% |
| C/C(=N\NC(=O)CNc1cccc(C(F)(F)F)c1)c1cccs1 | inactive: 28.3% |
| Cc1cccc(CN2CCC(n3nccc3NC(=O)c3ccccc3C)CC2)n1 | inactive: 17.4% |
| Cc1cc(NC(=O)CSc2nnc(C3CC3)n2N)c([N+](=O)[O-])cc1C | inactive: 15.1% |
| O=C(Nc1ccccc1)Nc1ccc(C(=O)N2CCCC2)cc1 | inactive: -54.4% |
| Cc1cc2nc(/C(C#N)=C\c3ccc(-c4ccccc4C(=O)O)o3)[nH]c2cc1C | inactive: -7.84% |
| O=C(OCc1cc(=O)n2ccsc2n1)c1ccccc1NCCO | inactive: 11.6% |
| CC(=O)c1ccc(N2CCN(CC(O)COC(c3ccccc3)c3ccccc3C)CC2)cc1 (configuration not stated) | inactive: 1.06% |
| CCN(CC)c1ccc(C(=O)Nn2cnc3ccccc3c2=O)cc1 | inactive: 16.6% |
| CC(=O)Nc1ccc(Nc2cc(C)nc3c(-c4ccccc4)c(C)nn23)cc1 | inactive: 4.7% |
| CCN(CC)c1ccc(/C=N/OCC(=O)Nc2cccc(C)c2)cc1 | inactive: 7.29% |
| O=S(=O)(c1ccc(NC(=S)N/N=C/c2ccc(Oc3ccccc3)cc2)cc1)N1CCOCC1 | inactive: 6.47% |
| Nc1ncnc(Oc2ccccc2F)c1[N+](=O)[O-] | inactive: 33% |
| O=C(O)c1ccc(NCCc2ccc(Cl)cc2)c([N+](=O)[O-])c1 | inactive: 7.51% |
| CCOC(=O)Nc1ccc2c(c1)N(C(=O)CN1CCN(CCO)CC1)c1ccccc1CC2 | inactive: 3.49% |
| CN1CCN(S(=O)(=O)c2cccc3nsnc23)CC1 | inactive: 8.2% |
| CCC1CCCCN1CCNC(=O)CNS(=O)(=O)c1ccc2nc(C)sc2c1 (configuration not stated) | inactive: -24.9% |
| COc1ccccc1NS(=O)(=O)c1ccc2[nH]c(=S)oc2c1 | inactive: -14.3% |
| O=C(N/N=C/c1c(O)ccc2ccccc12)c1cccnc1 | inactive: -12.8% |
| Cc1cccc(N(CC(=O)NCCc2ccccc2)C(=O)c2csnn2)c1 | inactive: 2.28% |
| COc1ccc(N2C(=O)C3C(c4ccc(OC)cc4O)NC(Cc4ccccc4)(C(=O)O)C3C2=O)cc1 (configuration not stated) | inactive: 3.84% |
| CC(=O)c1ccc(N2CCN(C(=O)c3ccc(S(=O)(=O)NCc4ccco4)cc3)CC2)cc1 | inactive: -8.77% |
| CC(C)COC(=O)N1CCCCC1c1cc(C(=O)NCc2ccc(F)cc2)no1 (configuration not stated) | inactive: 20.3% |
| O=S(=O)(Nc1ccc(Cl)cn1)c1ccc(F)cc1 | inactive: 29.3% |

| SMILES | growth rescue (activation) |
| --- | --- |
| COc1cccc(OCC(O)CN2CCC(CN3C(=O)c4cccc5cccc(c45)C3=O)CC2)c1 (configuration not stated) | inactive: -26.7% |
| CCCCc1nc(NCc2ccccc2)c(C#N)c2c1CCCC2 | inactive: 8.78% |
| O=C(Nc1c(F)cccc1F)C1CCN(C(=O)c2cccs2)CC1 | inactive: -9.13% |
| COc1cc(C(C(=O)NCC2CCCO2)N(C(=O)Cn2nnc3ccccc32)c2ccc(C(C)=O)cc2)ccc1O (configuration not stated) | inactive: 4.35% |
| O=[N+]([O-])c1ccc(OCc2cccc(COc3ccc([N+](=O)[O-])cc3)n2)cc1 | inactive: 9.63% |
| CCCc1nnc2c(N(C)S(=O)(=O)c3ccccc3)nc3ccccc3n12 | inactive: -1.04% |
| O=c1nc(N/N=C/C=C/c2ccccc2)cn[nH]1 | inactive: 24.6% |
| CCc1ccccc1NC(=O)c1cc(-c2ccco2)on1 | inactive: 33.5% |
| O=C(COC(=O)[C@H](Cc1ccccc1)NC(=O)c1cccs1)Nc1c(Cl)cccc1Cl | inactive: -0.356% |
| O=C(c1ccc2c(c1)N(Cc1ccccc1)C(=O)c1ccccc1S2(=O)=O)N1CCCCCC1 | inactive: 24.7% |
| Cc1ccc2cc(CN(c3ccccc3)S(=O)(=O)c3ccccc3)c(=O)[nH]c2c1 | inactive: 20.5% |
| CC(CNC(=O)CCc1nnc(CCC2CCCCC2)o1)c1ccccc1 (configuration not stated) | inactive: 11.8% |
| COc1ccc(S(=O)(=O)N2CCOCC2)cc1NC(=O)CSc1ncccn1 | inactive: 14.5% |
| CCN(CC)c1ccc(/C=N/NC(=O)c2ccco2)cc1 | inactive: -4.77% |
| NC(=O)C1CCN(C(=O)CCc2ccsc2)CC1 | inactive: -13% |
| CCOC(=O)Cc1csc(NC(=O)COc2cccc(C)c2)n1 | inactive: 25.7% |
| Cc1nn(C)cc1C(C(=O)NC1CCCCC1)N(C(=O)Cc1cccs1)c1ccc(F)cc1 (configuration not stated) | inactive: 15.4% |
| COc1ccc(OC)c(NC(=O)Nc2nc(CN)cs2)c1 | inactive: 2.57% |
| Cc1ccc(N2C(=O)C3C(C2=O)N2C(c4cccs4)C4C(=O)N(c5ccc(C)cc5)C(=O)C4N2C3c2cccs2)cc1 (configuration not stated) | inactive: -14.2% |
| c1ccc(C2C/C(=N\N3CCOCC3)c3ccccc3O2)cc1 (configuration not stated) | inactive: 16.8% |
| CC(=O)Nc1ccccc1-c1nc2ccccc2n(Cc2cccc(Br)c2)c1=O | inactive: 16.7% |
| CCCC(=O)Nc1ccc2c(c1)nc(CCN1CCCCC1)n2C | inactive: 11.9% |
| O=C(Nc1ccc(S(=O)(=O)N2CCCCC2)cc1)C1CC1 | inactive: -1.5% |
| C=C(C)Cn1c(SCC(=O)O)nnc1-c1ccc(C(C)(C)C)cc1 | inactive: 5.93% |
| COc1ccc(S(=O)(=O)N2CCc3ccccc3C2)cc1C(=O)O | inactive: -24% |
| CCC(=O)N(Cc1cc(=O)[nH]c2ccccc12)c1ccc(OC)cc1 | inactive: 2.46% |
